PubChem BioAssay AID651820 (National Center for Advancing Translational Sciences (NCATS), 2012)
About 12,000 (3.5%) of roughly 340,000 compounds were called active. Inconclusive means that the source gave no clear call. Such entries were picked first, then a sample of the others. Calls follow the shape of the dose curve; as a rule, active = well fitted inhibition curve with a large enough effect; inconclusive = small, poorly fitted or top-dose-only effect, or another doubt; inactive = no such curve, though single readings can be large or run the other way. Potencies of inconclusive entries are left out as doubtful fits.

Test: qHTS Assay for Inhibitors of Hepatitis C Virus (HCV)
Conditions: Huh7.5.1 HCVcc-Cre (HCVcc is cell-culture hepatitis C virus) infection, luciferase reporter, 44 h; activity change, negative = inhibition: at 41.8 µM (top of the series) unless noted
Method in brief: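 Seed cells (1,000/well) for 4 h; treat with compound and infect with HCVcc-Cre, moi about 0.5. Incubate 44 h, then detect luciferase activity.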
% is scaled to controls: 0 for no effect and ±100 for the full control effect; potency is read from the fitted curve at half-maximal effect; tags tell the direction and shape of the fitted curve.

Structure (SMILES)	Potency	activity change, negative = inhibition
COc1ccccc1-c1sc2cc3c(cc2c1C#CC1(O)CCCCC1)OCO3	inconclusive [inhibitor, single point]	
CCOC(=O)C1=C(O)/C(=C/c2cn(CC(=O)NCC3CCCO3)c3ccccc23)SC1=Nc1ccc(C)cc1 (stereo unspecified)	inconclusive [inhibitor, full curve]	
Cc1ccc(S(=O)(=O)NCC(=O)N/N=C/c2ccc(Cl)cc2)cc1	inactive	
CC(C)Oc1ccc(S(=O)(=O)N2CCOCC2)cc1NC(=O)Cc1ccsc1	inconclusive [inhibitor, single point]	
CCc1c(O)nc(SCC(=O)Nc2ccc(C)cc2)n(C2CCCCC2)c1=O	inconclusive [inhibitor, single point]	
CCOc1ccc(NC(=O)Cc2c(C(=O)O)n(C)c3ccccc23)cc1	inactive	
CSc1ccccc1C(=O)N(CC1CCCO1)c1c(N)n(Cc2ccccc2)c(=O)[nH]c1=O (stereo unspecified)	inactive	
O=[N+]([O-])c1cccc(C=NN=C2c3ccccc3-c3ccccc32)c1	inconclusive [inhibitor, full curve]	
Cc1ccc(SCCNC(=S)Nc2ccc(C)cc2C)cc1	inconclusive [inhibitor, partial curve]	
CC(Oc1ccc2c(-c3ccccc3)cc(=O)oc2c1)C(=O)NCC(O)c1ccccc1 (stereo unspecified)	active: 8.91 µM	
Cc1nn(-c2ccccc2)c(C)c1/C=N/n1cnnc1	inactive	
COc1ccccc1-c1noc(-c2cccs2)n1	inconclusive [inhibitor, single point]	
CC1(C)CC2(CC(c3cccs3)c3cc(Cl)c(O)cc3O2)NC(=S)N1 (stereo unspecified)	inconclusive [inhibitor, full curve]	
COc1ccc(-n2nnnc2SCC(=O)Nc2cccc(NC(C)=O)c2)cc1OC	inconclusive [inhibitor, single point]	
O=c1cnn(-c2ccc(Cl)cc2Cl)c(-c2ccccc2)c1	inconclusive [inhibitor, full curve]	
COc1ccccc1NC(=O)Cn1cc(C(=O)c2ccco2)c2ccccc21	inconclusive [inhibitor, partial curve]	
Cc1ccc(S(=O)(=O)c2c(N)n(NC(=O)c3ccco3)c3nc4ccccc4nc23)cc1	inactive	
COC(=O)c1sccc1NC(=O)COc1cccc(C)c1	inconclusive [inhibitor, partial curve]	
CSc1ccc(CN(C)C(=O)CNC(=O)c2sc3ccccc3c2Cl)cc1	inconclusive [inhibitor, single point]	
Cc1ccc(C(=O)/C=C\Nc2ccc(C)c(C)c2)cc1	inactive	
N=c1c2c(n(Cc3ccc(Cl)c(Cl)c3)c3c1CCC3)CCCC2	inconclusive [inhibitor, full curve, poor fit]	
CCn1c(C)nc2cc(C(=O)N/N=C(\C)c3ccccc3O)ccc21	active: 10 µM	
CCOC(=O)c1ccc(-n2ccnc2)c(NC(=O)c2cccc(Br)c2)c1	inconclusive [inhibitor, partial curve]	
CCn1c(CNc2nc(-c3ccccc3)cs2)nnc1SCC(=O)NCc1ccccc1	inactive	

Structure (SMILES)	Potency	activity change, negative = inhibition
CC(OC(=O)c1ccc(Cl)c(S(N)(=O)=O)c1)C(=O)NCc1ccc2c(c1)OCO2 (stereo unspecified)	inconclusive [inhibitor, single point]	
O=C(C[n+]1ccccc1)N/N=C/c1ccccc1C(F)(F)F	inactive	
N=C1C(c2nc3ccccc3s2)=C(O)CN1NC(=O)c1ccc([N+](=O)[O-])cc1	active: 11.2 µM	
COc1ccc(C2/C(=C(/O)c3ccc(C)cc3)C(=O)C(=O)N2C)c(OC)c1 (stereo unspecified)	inactive	
O=C(COC(=O)c1ccccc1-n1cnnn1)c1ccc(F)cc1		inconclusive: -97.8% [inhibitor]
CN(C(=O)C(Cl)Cl)C1CC2C=CC1C2 (stereo unspecified)	inconclusive [inhibitor, partial curve]	
O=C(/C(=C/c1ccc(Cl)cc1)c1nc2ccccc2[nH]1)c1cccs1	active: 11.2 µM	
C#CCOc1ccc2c(c1)c(C(C)=O)c(C)n2Cc1ccccc1	inconclusive [inhibitor, single point]	
Fc1ccc(-c2csc(Nc3ccccn3)n2)cc1	inconclusive [inhibitor, single point]	
Cc1ccc(S(=O)(=O)CC(c2ccccc2)N2CCOCC2)cc1 (stereo unspecified)	inconclusive [inhibitor, partial curve]	
CCCSC(=S)c1c(C)[nH]n(-c2ccccc2)c1=O	inconclusive [inhibitor, single point]	
CCN(CC)S(=O)(=O)c1ccc(N2CCOCC2)c(NC(=S)NC(=O)c2ccco2)c1	inconclusive [inhibitor, partial curve]	
Cc1ccc(C(=O)NCCSc2ccccc2)cc1S(=O)(=O)Nc1ccccc1	inconclusive [inhibitor, single point]	
CC(C(=O)OCC(=O)Nc1cccc(S(=O)(=O)N2CCOCC2)c1)N1C(=O)c2ccccc2C1=O (stereo unspecified)	inactive	
COc1cccc(CC(=O)Nc2nc3c(s2)C(=O)CC(C)(C)C3)c1	inconclusive [inhibitor, partial curve]	
O=C(N/N=C/c1ccccc1F)c1ccccc1OCc1ccccc1	active: 10 µM	
Cc1cc(C)cc(NC(=O)CSc2nc3[nH]ncc3c(=O)[nH]2)c1	inconclusive [inhibitor, partial curve]	
COc1cc(/C=C/C(=O)OCC(=O)NC(=O)NC(C)C)ccc1OCC#N	inconclusive [inhibitor, full curve, poor fit]	
N#CCC(=O)Nc1ccc(C(=O)OCC(=O)N(C2CCCCC2)C2CCCCC2)cc1	inactive	
COc1ccc(NCC(=O)Nc2ccc(Cl)cc2C)c(OC)c1	inconclusive [inhibitor, partial curve]	
COc1cc(CCC(=O)OCC(=O)Nc2cc(S(=O)(=O)N3CCOCC3)ccc2Cl)cc(OC)c1OC	inactive	
COc1cccc(NC(=O)CN(C)C(=O)c2cccnc2Sc2ccc(C)c(C)c2)c1	inconclusive [inhibitor, partial curve]	
Cc1ccc(-c2nnc(Nc3ccccc3)c3ccccc23)cc1S(=O)(=O)NCC1CCCO1 (stereo unspecified)	inconclusive [inhibitor, single point]	
CCCC(=O)Nc1ccc(C(=O)N/N=C/c2ccc([N+](=O)[O-])o2)cc1	inconclusive [inhibitor, partial curve]	

Structure (SMILES)	Potency	activity change, negative = inhibition
O=C(OCC#CCSc1nnc(-c2cccc3ccccc23)o1)c1ccco1	inactive	
COc1cc(/C=N/O)ccc1OCc1ccc([N+](=O)[O-])cc1	inconclusive [inhibitor, single point]	
NC(=O)C1(N2CCCCC2)CCN(CC(=O)Nc2ccc(Oc3ccccc3)cc2)CC1	inconclusive [inhibitor, single point]	
CCCN(Cc1cc2cc(C)ccc2[nH]c1=O)C(=O)c1cccc(OC)c1	inconclusive [inhibitor, partial curve]	
Cc1nc(N)c(Br)c(C)c1Br	inconclusive [inhibitor, single point]	
Cn1c(CC(=O)NNC(=O)c2ccccc2F)nc2ccccc21	inactive	
CCOC(=O)N1CCN(C(=O)c2cc(S(=O)(=O)N3CCc4ccccc43)ccc2OC)CC1	inconclusive [inhibitor, single point]	
CCOC(=O)c1nn(-c2ccc(C)c(Cl)c2)c(=O)c(C#N)c1C	inconclusive [inhibitor, single point]	
CCN(C(=O)c1cnc(OC)cc1C(F)(F)F)c1ccc(Cl)cc1Cl	inactive	
O=C(CSc1nnc(COc2ccc(Cl)cc2)o1)N1c2ccccc2CCc2ccccc21	active: 10 µM	
Cc1nc2ccc(NC(=O)c3cc(S(=O)(=O)N4CCOCC4)ccc3C)cc2s1	inconclusive [inhibitor, partial curve]	
COc1cc(NC(=O)C2CCCCC2)c(OC)cc1NC(=O)c1ccco1	inconclusive [inhibitor, full curve]	
COc1cc(CNC2CCCCCCC2)cc(Br)c1OCC#N	inconclusive [inhibitor, partial curve, poor fit]	
COc1ccc(/C(N)=N/OC(=O)Cc2cccs2)cc1	inactive	
CC1CCCCC12NC(=O)N(CC(=O)Nc1cccc(S(=O)(=O)N3CCCCC3)c1)C2=O (stereo unspecified)	inconclusive [inhibitor, single point]	
Cc1cccc(NC(=O)c2ccc3nccnc3c2)n1	inactive	
O=C(Cc1ccccc1)NC(NC(=O)Cc1ccccc1)c1cccc([N+](=O)[O-])c1	inconclusive [inhibitor, partial curve]	
CCOC(=O)/C(C#N)=C/c1cc2ccccc2nc1N1CCCCC1	inconclusive [inhibitor, partial curve]	
O=C(Cn1nnc2c(cnn2-c2ccc(F)cc2)c1=O)c1ccccc1F	inactive	
CCC(C)Cn1c(C)nc2ccccc21 (stereo unspecified)	inconclusive [inhibitor, partial curve]	
Cc1ccc(NC(=O)CSc2ccc3c(c2)OCCO3)c(O)c1	active: 10 µM	
O=C(Cc1ccccc1Cl)N/N=C/c1cccnc1	inactive	
COc1ccc(-c2csc(NC(=O)c3ccc(OCC(=O)N4CCOCC4)c(OC)c3)n2)cc1OC	inconclusive [inhibitor, partial curve]	
